Results on 167 variants are retold here after the RNAGym collection of RNA variant scans (doi:10.7554/elife.90254).

B1: LINE1-mini (parent)
chain: GGCAGAGCUCAACACAGCGUGGCAAAGUGGCUGUGGCUAGACUGCC

The source gives no read counts; variants with many changes may rest on few reads.

In this data set the parent is B1. The data set can be described thus: self-cleavage, relative activity (ratio to wild type); higher = more cleavage; in vitro, sequencing; the parent is a self-cleaving ribozyme.
As for A4G G5C A14G C15A C37A, the self-cleavage worked out at 0.05.

As to C10U A14U G29C A39U G44C, the self-cleavage turned out to be 0.01. With C13A C18U A25U A26G U28C G30U C37U A39U, the self-cleavage was 0.21. As for C10A A11G G21U C46U, the figure is 0.05; as for C15A G17A U34A, 0.02. For the variant A6G G19U G29U U43G, the self-cleavage worked out at 0.03. With A4C C8U A11C G22A A39G, the self-cleavage came to 0.01. As to G17U C23G U28C, the self-cleavage was found to be 0.36. As for C13U G21U G40U, the self-cleavage was determined as 0.03. For the variant G2A A6G U20A C42G C45G, the self-cleavage was 0. As for A12C G27C U32G, the self-cleavage stood at 0.

With G21A G22U C23A, the self-cleavage turned out to be 0.88. As for C10U A14C C31A, the figure is 0.02; as for C3A C37G C42A, 0.2. As for C10A C18G U43G, the figure is 0. C15U A25U U38C: the self-cleavage came to 0.08. As for C8G A25C G44A, the figure is 0.04; as for A16G G27C G40A, 0.02.

As for C15G U20G C31G G44C, the self-cleavage was 0.

C10U A11C C31A G36C U43C C45U: the self-cleavage is 0.01. On to A4G U9C A25U U34A C46A, for which the self-cleavage was found to be 0.07. Take G5C C23G A25U G35A: the self-cleavage was 0.04. As for G19C C37G C45A, the figure is 0.01. In the case of C10A G21C A24C, the self-cleavage amounted to 0.02. As for A12C G21A G35U C45G, the figure is 0.03. As for C15A G21U C31A, the figure is 0.03; as for C8A C31A C46U, 0.03; as for C8G A12C G17C G19U, 0.

As for C3U A6G C42A, the self-cleavage was determined as 0.11.

On to A12U C13U U38A C42A, for which the self-cleavage turned out to be 0.09. As for G1A A6U G21U G40U, the figure is 0.38; as for G5A A12C C46G, 0.03; as for G2U C10G A14G G30A A41U, 0.01. As for G1U A12C U43G, the figure is 0.02; as for C3G C23G C45A, 0.11; as for A16U C37U G40C C45U, 0.01. Consider G7A U9G C10A U34G, for which the self-cleavage was 0.04. On to G2A C10A G40C A41U, for which the self-cleavage was 0.02.

In the case of U9G C23U C37A U43G, the self-cleavage came out at 0.02. Turning to C37U A39U C45U, the self-cleavage turned out to be 0.05. As for G2C C23U C31U, the figure is 0.11; as for U20C G35C C45A, 0.33. Consider G2C C23U G27A C37A C46A, for which the self-cleavage came out at 0.03. As for C13U G27U C46U, the figure is 0.18. Take A11G U20C A39C A41G: the self-cleavage worked out at 0. As for C3U G7U G33U C37A, the figure is 0.03; as for C13U U20A G22A C31A A39G U43G, 0.05; as for A6G C8G G29U, 1.16.

Consider G1A G40A A41G, for which the self-cleavage worked out at 0.15. U9A A11G C13G U34A: the self-cleavage is 0. As for C15A G27C G30U C45A, the figure is 0.01; as for G1A G36U A39U, 0.05.

With U9G C15A C42G, the self-cleavage stood at 0.09. As for A11C C13U A16C C31A U34G C46A, the figure is 0; as for C3U A4U A12G G35U G36C, 0.07.

With C13U G35U C45G, the self-cleavage is 0.2. As for A12U A16G U20C A41C C45A, the self-cleavage stood at 0.07. Take A14G C18A A25G: the self-cleavage came to 0.09. As for G17A G27C G40A, the figure is 0.04. Regarding G21C A24C G27U G35A, the self-cleavage turned out to be 0.06. As for A16C G22C C23U G33A G40A, the figure is 0.01. Take G7A C13A G17C A25C A26U G40U: the self-cleavage is 0.04.

Take G5A A14U G21C C37A G40U: the self-cleavage turned out to be 0.06. As for C18A G27U G29C, the figure is 2.38. As for G17A A26C G36C, the figure is 0.03; as for C3A G7C C31U G33C, 0.1; as for G2U C10G G21C G29U, 0. As for A16G G36C A39U C46G, the figure is 0.01.

As for A6C G7U G27A G33A, the self-cleavage came out at 0.19. For the variant G5A A12C U20G A24G G27U C42U C46A, the self-cleavage stood at 0.03. Regarding C8A C15G C18U, the self-cleavage is 0.19.

As to C13G C15A U38C C45A, the self-cleavage is 0.01. As to G1A A24C A25G, the self-cleavage stood at 0.1. Consider A6U G17A G22U G29U G36A G40A C45U, for which the self-cleavage came out at 0.12. As for A6G C18A G21U G40A, the figure is 0.01; as for A11U G30U U38C, 0.04; as for C10A C18A G21C G27U G30A, 0.03.

Turning to G7U C8U A25C U38G G40C, the self-cleavage was found to be 0.07. As for U20A G27C C31A, the figure is 0.86; as for G5A C8U C31A C46G, 0.82; as for G21A C31U C37U C46A, 0.03. As for G17C G19C G22U G35U, the figure is 0.06; as for A25C G27U C42U, 0.08; as for A16C A24U G40A U43C, 0.03. For the variant G5A C15A U20A U32C, the self-cleavage was found to be 0.01. As for G2U C15A G21C, the figure is 0.07. As for A4C U9C A12C G19A G27U, the figure is 0.01; as for G21U A26C C31G U32G, 0.11. As for G22C G27A G33U U38C C46U, the figure is 0.03; as for G1U G2U A4U G19A U20C G33U U38G C45G, 0.03. G5A A6C A25G G29C: the self-cleavage was found to be 0.04.

For C15G G35A A41C, the self-cleavage worked out at 0.03. Regarding G1U U20G C42U C46G, the self-cleavage worked out at 0.14. G5U G7U C13A U43C: the self-cleavage is 0.13. As for G1U C8U G21U, the figure is 0.23.

For the variant C8A A16C G30C C37U G40U, the self-cleavage came out at 0.27. As for G17U C18G A25C G36C, the figure is 0.07; as for G2A A4G G21U C23A U38A, 0.08; as for C3G G19A G30U, 0.67. G2A A4U G19A C31U C46A: the self-cleavage was 0.08. As for C3G A11G C18G G36U C46U, the figure is 0.01; as for G5U U34C G40A, 0.06; as for A4G C23A U28C G29A, 0.13. Take C13U G17C G40C: the self-cleavage turned out to be 0.05.

Consider G21A G30C G33U U38G C45G, for which the self-cleavage stood at 0.05.

Take G2A G7C G21U C31A: the self-cleavage was 0.

C8A C23A G27U A41U: the self-cleavage amounted to 0.04. A39C C45A C46A: the self-cleavage came out at 0.14. With G1A C23U A26G U28C U32C A39C, the self-cleavage is 0.04. As for C10U C18U G19C, the figure is 0.31. As for A25G G27A G30U, the figure is 0.83; as for G2C G5U U32A C45U, 0.01. As for C13A U28A G35A A41G C46G, the figure is 0.15. As for G5C G21C C23G C46A, the self-cleavage is 0.02. Consider C8A A24C C42G, for which the self-cleavage came to 0.13.

G5C C15G A25C C45U: the self-cleavage turned out to be 0.01. As for C8G C10U C18U U20C G21C, the figure is 0.04; as for G1U C15U A24C U32G G40A, 0.05; as for A16U G29C U43A, 0.02.

Turning to G7C C8G C13G A16G C31G, the self-cleavage is 0.01. As for G7C C13A C42G, the figure is 0.09; as for G7U C10U C37A, 0.05; as for C8G G29U C46A, 0.13.

In the case of A6U A12G G17A C31U C42A, the self-cleavage was 0.02. As for G2U C10G G22A, the figure is 0.02; as for G5C A12C G40C, 0.03.

On to G33U C42U U43A C46U, for which the self-cleavage amounted to 0.04. As for U9G G19C C42U, the figure is 0.02; as for C8A G17U G36C A41U, 0.16; as for G17U G40C A41U U43G, 0.09.

Turning to U9A C10A U20C U32G A41U, the self-cleavage amounted to 0.03. As for C8G G27A U38A, the figure is 0.38. As for A4C A11U G44A, the figure is 0.03. As for G36U C42A C46U, the figure is 0.1; as for G5A G22C C23A, 0.1. For the variant G2C C8U U20G U28G, the self-cleavage was 0.04. As for C10A C13A G30U U43A G44U, the figure is 0.03. As for G2C U9A C13U C37A G44A, the figure is 0.08. As for C8A G17A U34G G44C, the figure is 0.34; as for C15A U20G C23G G30C G33U, 0.29.

For A14U G36C C46U, the self-cleavage was 0. As for C8A A12U C37G, the figure is 0.09. As for G7C A11G A14C G22U A24G C31A G33C C46U, the self-cleavage worked out at 0.

In the case of G2A G33C C46U, the self-cleavage turned out to be 0.04.

For A11U A41C U43G, the self-cleavage turned out to be 0.

Turning to G1U G27C C31A, the self-cleavage was 0.11. As for C23A C31G A41C, the figure is 0.05; as for C10A A11C G27A U34A, 0.04. With U9G C10A A41U, the self-cleavage stood at 0.

On to C8G A24U A41U, for which the self-cleavage was 0.31. As for A14C U34C A39C, the figure is 0.13; as for G2C A12G G21A A41C, 0.03; as for C15U A26G G35C C37A C42A G44C, 0.05. As for A16C C31A C42A, the figure is 0.05.

For G7C U9A A39C, the self-cleavage amounted to 0.33. As for G2C G7C U9C, the figure is 0.01; as for G1U U20G C23A, 0.18; as for U20C A24C U38C, 0.26. As for G2C G19U U43C, the figure is 0.05; as for C8U C23A G27A C46U, 0.59; as for G2C U9A A16C U38A, 0.03. On to C13U C31U U43C, for which the self-cleavage worked out at 0.06.

As to A6G A14G U32G A41C, the self-cleavage stood at 0. In the case of G5A C10A U32C C37A G44U, the self-cleavage was 0.04.

Take A16G A41U U43A: the self-cleavage was found to be 0.01. For the variant G21U G35C A41U, the self-cleavage was 0.31. As for G5C C18U G36C G44U, the figure is 0.04.
